# From PubChem BioAssay AID1477 (National Center for Advancing Translational Sciences (NCATS), 2009)
# Out of some 230,000 compounds screened, fewer than 10 were called active. Inconclusive results, whose numbers are uncertain, are shown with a selection of clear calls. Calls follow the shape of the dose curve; as a rule, active = well fitted curve in the direction sought with a large enough effect; inconclusive = small, poorly fitted or top-dose-only effect, or effect the other way, or another doubt; inactive = no such curve, though single readings can be large or run the other way. No potency is given beside an inconclusive call; the fits are too rough.
# Biological target: Runt-related transcription factor 1 (Homo sapiens) + Core-binding factor subunit beta (Homo sapiens) (UniProt Q01196+Q13951)
# Test: qHTS Assay for Compounds Blocking the Interaction Between CBF-beta and RUNX1 for the Treatment of Acute Myeloid Leukemia; as to activity, negative = inhibition: % of control where 0% means no effect
# Details: AlphaScreen CBFb-His/RUNX1-biotin binding, biochemical; activity, negative = inhibition: at 59.8 µM (top of the series) unless noted
# How it was run: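 Bead-based AlphaScreen assay; binding partners His-tagged CBF-beta and biotinylated RUNX1 at 30 nM each. Compound exposure 15 min after a 20-min protein preincubation; bead step 90 min; all steps at room temperature.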
Structure (SMILES),Potency,"activity, negative = inhibition"
O=C(N/N=C/C=C\c1ccco1)c1ccccn1,"inconclusive [inhibitor, single point]",
C[C@@H](CO)NC(=O)[C@@H]1C=C2c3cccc4[nH]cc(c34)C[C@H]2N(C)C1,"inconclusive [inhibitor, full curve]",
COC(=O)c1ccc(OC)c(CSc2nnc(COc3ccc(OC)cc3)o2)c1,"inconclusive [activator, partial curve]",
Cc1cc(C)c([N+](=O)[O-])cc1-c1ccc(/C=N/c2c(-c3ccco3)nc3ccccn23)o1,"inconclusive [inhibitor, single point]",
COc1cnc(SCc2ccc(Cl)cc2)nc1Cl,"inconclusive [activator, single point]",
COC(=O)CSc1cc(C)nc(NC(C)=O)n1,inactive,
Cc1nc2sc(C(=O)c3ccccc3)c(N)c2c2c1CCCC2,"inconclusive [activator, partial curve]",
CCCNC(=O)OC[C@@H]1O[C@H](CCO/N=C(\C)CCN2CCc3nc(CC)c(CC)cc3C2)C=C[C@@H]1Oc1ccc(OC)cc1,,inactive: 18.7% [at 13.1 µM]
O=C(CC(Nc1cccc(Cl)c1Cl)C(=O)O)c1ccccc1 (stereo not given),inactive,
CCOC(=O)/C(=C\c1cccc(O)c1)c1nc2sc(C)c(C)c2c(=O)[nH]1,inactive,
CSc1nc2c(c(=O)[nH]1)C(c1cccc(Cl)c1)CC(=O)N2 (stereo not given),"inconclusive [inhibitor, single point]",
COc1ccc2c(c1)O[C@H](c1ccc3c(c1)OCO3)[C@@H](OC(=O)NCCOc1ccccc1)C2=O,inactive,
CN1/C(=C\C(=S)Nc2ccccc2)C(C)(C)c2ccccc21,"inconclusive [inhibitor, partial curve]",
Cc1cccc(S(=O)(=O)c2c(N)n(/N=C/c3ccco3)c3nc4ccccc4nc23)c1,"inconclusive [inhibitor, partial curve]",
CCCCc1nc2c(c3c1C[C@H](C)OC3)CN(C(=O)C1CCCCC1)CC2,,inactive: 3.58% [at 13.1 µM]
COc1cccc(C(=O)CSc2nnc(COc3cccc4cccnc34)o2)c1,"inconclusive [inhibitor, single point]",
CCN(CC)S(=O)(=O)c1ccc(C(=O)NC2=C(C(=O)OC)SCC2)cc1,"inconclusive [inhibitor, single point]",
CC1(C)CC1C(=O)N/C(=C/CCCCSCC(N)C(=O)O)C(=O)O (stereo not given),"inconclusive [inhibitor, single point]",
CCN1CCN(c2cc(N3CCCC3)c([N+](=O)[O-])cc2F)CC1,"inconclusive [activator, single point]",
COc1ccc(NS(=O)(=O)c2cccc(Cl)c2Cl)cc1S(=O)(=O)N1CCCCC1,inactive,
O=C(Nc1cc(C(F)(F)F)cc(C(F)(F)F)c1)c1cc(Cl)ccc1O,"inconclusive [activator, single point]",
Oc1c(C(Nc2nc3ccccc3s2)c2ccco2)ccc2cccnc12 (stereo not given),"inconclusive [inhibitor, single point]",

Structure (SMILES),Potency,"activity, negative = inhibition"
CC(=O)OCCNc1cc(SCc2ccco2)c2nonc2c1[N+](=O)[O-],"inconclusive [inhibitor, partial curve]",
CC(C)N(Cc1nc(-c2ccccc2)no1)S(=O)(=O)c1ccccc1,"inconclusive [activator, full curve]",
C=CCC1NCCc2c(Br)cccc21 (stereo not given),inactive,
CC(=O)Nc1nonc1NC(=O)CSC1=NCCS1,inactive,
COc1ccc(C2CC(=O)Oc3cc(C)c(Cl)c(C)c32)cc1 (stereo not given),"inconclusive [activator, full curve, poor fit]",
COC(=O)[C@H](Cc1ccccc1)NC(=O)O[C@@H]1C(=O)c2cc(OC)ccc2O[C@H]1c1cccc(OC)c1,"inconclusive [activator, partial curve]",
O=C(COC(=O)c1ccc(Oc2ccccc2)cc1)Nc1nnc(-c2ccccc2)o1,"inconclusive [inhibitor, single point]",
COc1ccc(N2Nc3n[nH]c(N)c3N2)cc1,"inconclusive [inhibitor, partial curve]",
CS(=O)(=O)N1CCC(C(=O)NCCN2CCN(Cc3ccccc3)CC2)CC1,"inconclusive [inhibitor, single point]",
CCC(C)(C(=O)NC1CCCC1)N(C(=O)c1ccccn1)c1ccc(C)cc1 (stereo not given),inactive,
O=C(N/N=C/c1cc(Cl)cc([N+](=O)[O-])c1O)c1ccccc1NS(=O)(=O)c1cccs1,"inconclusive [inhibitor, partial curve]",
O=C(COC(=O)/C=C/c1ccco1)NCc1ccco1,"inconclusive [inhibitor, partial curve]",
O=C(CSc1nc(-c2ccccc2)nc2c1Cc1ccccc1O2)Nc1ccc(C(=O)O)cc1,"inconclusive [activator, partial curve]",
CCCn1nc(NC(=O)c2cccs2)c2cc3ccccc3nc21,"inconclusive [activator, partial curve]",
COC(=O)[C@@]1(Cc2ccc(OC)cc2)[C@H]2c3cc(C(=O)N4CCCC4)n(CCc4ccc(O)c(O)c4)c3C[C@H]2CN1C(=O)c1ccccc1,inactive,
O=C1NC(=O)N(c2ccccc2)C(=O)/C1=C\c1ccc([N+](=O)[O-])s1,"inconclusive [inhibitor, single point]",
O=C(c1ccc2c3c(cccc13)CC2)C1CCCN(Cc2ccccn2)C1 (stereo not given),"inconclusive [inhibitor, single point]",
CC1CC(C)CN(CC(=O)c2ccc(OC(F)F)cc2)C1 (stereo not given),inactive,
COc1ccc(OCCC(=O)OCC(=O)NCCC2=CCCCC2)cc1,"inconclusive [inhibitor, partial curve]",
COc1ccc(NS(=O)(=O)c2cccc(NC(=O)COc3ccc(OC)cc3)c2)cc1,"inconclusive [inhibitor, single point]",
O=C(NCc1cccnc1)/C(=C\c1ccc(-c2ccc(Br)cc2)o1)S(=O)(=O)c1ccccc1,"inconclusive [activator, single point]",
CCCNC(=O)CNC(=S)N(Cc1ccccc1F)C1CCCCC1,inactive,

Structure (SMILES),Potency,"activity, negative = inhibition"
Cc1ccc(CNc2ncnc3ccc(-c4c(C)noc4C)cc23)cc1,inactive,
Cc1nn(-c2ccccc2)c2nc(N)c(C#N)c(-c3ccc(F)cc3)c12,"inconclusive [activator, single point]",
Cc1cc(C(=O)NNC(=O)CCCCC(=O)NNC(=O)c2cc(C)[nH]n2)n[nH]1,"inconclusive [inhibitor, partial curve]",
CC1=CCC(COC(=O)Nc2ccccc2)CC1 (stereo not given),"inconclusive [activator, partial curve]",
C=CCn1c(O)c(N=NC(=S)Nc2ccccc2F)c2cc(S(=O)(=O)N3CCOCC3)ccc21,"inconclusive [inhibitor, partial curve]",
COc1cc(/C=N/OCC(=O)Nc2cc(C)cc(C)c2)ccc1OCc1ccc(Cl)cc1,"inconclusive [activator, partial curve]",
O=C(NCc1ccco1)c1cnn2c1NC(c1ccccc1)CC2C(F)(F)F (stereo not given),inactive,
CCc1nnc(NC(=O)CN2C(=O)/C(=C/c3ccc(OC)c(OC)c3)SC2=S)s1,"inconclusive [inhibitor, single point]",
Cc1ccc(C)c2[nH]c(=O)c(CN(Cc3ccc4c(c3)OCO4)Cc3nnnn3Cc3ccco3)cc12,"inconclusive [inhibitor, single point]",
CCOC(=O)CSc1nc(-c2ccccc2)nc2ccc(F)cc12,"inconclusive [activator, single point]",
COc1ccc(NCC(=O)N/N=C2\CCCC(C)C2)cc1 (stereo not given),"inconclusive [inhibitor, single point]",
CCOc1cccc(/C=N/NC(=S)NCCN2CCOCC2)c1O,"inconclusive [inhibitor, partial curve]",
CCN1CCN(Cc2ccc(NC(=O)c3ccc(C)c(NC(=O)c4nccnc4N)c3)cc2C(F)(F)F)CC1,"inconclusive [activator, full curve]",
O=C(CCCN1C(=O)/C(=C\c2ccccc2)SC1=S)Nc1ccc(O)cc1,"inconclusive [inhibitor, single point]",
COc1ccc(C)cc1N(CC(=O)Nc1cccnc1)S(=O)(=O)c1ccccc1,inactive,
CCCn1nc([N+](=O)[O-])c(C(C#N)c2nc3ccccc3s2)c(Cl)c1=O (stereo not given),"inconclusive [inhibitor, partial curve]",
Cn1c(=O)c(NC2CCCCC2)c2c3c(cccc31)C(=O)c1ccccc1-2,"inconclusive [activator, partial curve]",
Cc1cccc(N=C2NC(=O)/C(=C/C=C/c3ccco3)S2)c1C,"inconclusive [inhibitor, single point]",
O=C(Cl)/C=C/C(=O)Cl,inactive,
CCOC(=O)NCC(C)(C)CNC(=O)OCC,"inconclusive [inhibitor, single point]",
CCCCC1=CC2=CC(=O)C(C)(OC(=O)CC)C(=O)C2=CN1c1ccc(OC)cc1 (stereo not given),"inconclusive [inhibitor, single point]",
